Assay results taken from PubChem BioAssay AID588855 (National Center for Advancing Translational Sciences (NCATS), 2011).
In all, about 410,000 compounds went through this assay and about 5,000 (1.2%) were called active. The inconclusive results got no clear call from the source; some entries with a clear call stand among them for comparison. Calls come from the whole dose curve; as a rule, active = well fitted inhibition curve with a large enough effect; inconclusive = small, poorly fitted or top-dose-only effect; inactive = no such curve, though single readings can be large or run the other way. Potencies beside an inconclusive call are fits to weak or partial responses and may not hold up.

Assay: qHTS for Inhibitors of TGF-b; note: nearly all actives have a fitted effect of over 65% in size
Conditions: HepG2 CAGA-GFP TGF-b/SMAD3 reporter, GFP fluorescence, 18 h, TGF-beta stimulated, 500 pg/mL final; series mostly up to 46.1 µM; activity, negative = inhibition: at the top concentration
How it was run: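 HEPG2 CAGA-GFP, 1000 cells/well; 2 h settle, 37 C; cpd via pin tool; TGF-b 500 pg/mL final; 18 h, 37 C; GFP imaging ex488/em500-530; %Activity normalised to -TGF-b and +DMSO controls; CRC fit, curve class.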
% is set by controls: 0 for no effect and ±100 for the full control effect; potency is the fitted concentration of half-maximal effect; tags give direction and shape of the fitted curve.

| SMILES | Potency | activity, negative = inhibition |
| --- | --- | --- |
| Cc1cc(C)c(NS(=O)(=O)c2ccc3c(c2)CC(C)N3C(=O)C2CCC2)c(C)c1 (centres undefined) | inconclusive: 11.2 µM [inhibitor, partial curve, poor fit] |  |
| NCCOc1ccc(C23CC4CC(CC(C4)C2)C3)cc1 | inconclusive: 35.5 µM [inhibitor, single point] |  |
| CN1CCN(C(=S)c2ccc(-c3cc(Cl)ccc3Cl)o2)CC1 | inconclusive: 8.91 µM [inhibitor, partial curve, poor fit] |  |
| O=S(=O)(Nc1nc2ccccc2nc1Cl)c1ccc(Cl)cc1 | active: 12.6 µM |  |
| COc1ccc(CNC(=O)[C@@H]2CC=C[C@@H]3CCN(Cc4ccccc4)C(=O)[C@@H]32)cc1 | inactive |  |
| CCOc1ccc(CN2CCN(Cc3cnc(-c4ccccc4)s3)CC2CCO)cc1 (centres undefined) | inconclusive: 15.8 µM [inhibitor, single point] |  |
| Cc1ccccc1NC(=O)c1cnn(-c2ccccc2)c1C |  | inactive: -15.3% |
| O=[N+]([O-])c1ccc2[nH]c(=S)sc2c1 | inconclusive: 35.5 µM [inhibitor, single point] |  |
| COCC(=O)N(C)CC1CCCN(CCc2ccccc2OC)C1 (centres undefined) |  | inactive: 14.3% |
| CCOc1ccc(C2CC(=O)NC(NC(=O)c3cccc(Cl)c3)=N2)cc1 (centres undefined) | inconclusive: 0.316 µM [inhibitor, full curve, poor fit] |  |
| Cc1ccc(CCNC(=O)CN(c2cc(C)cc(C)c2)S(=O)(=O)c2c(C)noc2C)cc1 | inactive |  |
| CCOC(=O)c1nnn(CC(=O)Nc2cccc(F)c2)c1C(=O)OCC | inconclusive: 35.5 µM [inhibitor, partial curve, poor fit] |  |
| COc1ccc(CC(=O)N(c2ccccc2)c2nc(C)cs2)cc1 |  | inactive: -24.6% |
| Nc1n[nH]c(C2CC2)c1N=Nc1ccc(Cl)cc1 | inconclusive: 35.5 µM [inhibitor, single point] |  |
| Cc1cc(=O)[nH]c(SCC(=O)N2CCN(C(c3ccccc3)c3ccccc3)CC2)n1 | inconclusive: 2.82 µM [inhibitor, partial curve, poor fit] |  |
| Cc1ccc(C(=O)N2CCc3ccccc32)cc1 | inconclusive: 17.8 µM [inhibitor, single point] |  |
| CCC(=C(c1ccc(OC)cc1)c1ccc(OC)cc1)c1cn(CC(O)CN2CCN(C)CC2)c2ccccc12 (centres undefined) | inconclusive: 35.5 µM [inhibitor, single point] |  |
| CCNC(=S)N/N=C/c1cccc(OCc2c(F)cccc2Cl)c1 | inconclusive: 35.5 µM [inhibitor, partial curve, poor fit] |  |
| CCOC(=O)C1CCCN(C(=O)COc2ccc(S(=O)(=O)N3CCOCC3)cc2)C1 (centres undefined) |  | inactive: -8.31% |
| Cc1cc(=O)[nH]c(SCC(=O)N2CCCCCC2)n1 | inconclusive: 2.82 µM [inhibitor, full curve, poor fit] |  |
| C=CCOc1ccc(C(=O)N(Cc2ccc(N(C)C)cc2)C2CCS(=O)(=O)C2)cc1 (centres undefined) |  | inactive: -27.3% |
| CC(=NNC(=S)Nc1cccc(Cl)c1)c1ccccn1 | inconclusive: 0.631 µM [inhibitor, partial curve, poor fit] |  |
| Cc1cccc(C(=O)NC(C(=O)Nc2nc(-c3ccccn3)cs2)C(C)C)c1 (centres undefined) | inconclusive: 3.55 µM [inhibitor, full curve] |  |

| SMILES | Potency | activity, negative = inhibition |
| --- | --- | --- |
| CCCOc1ccc([N+](=O)[O-])cc1C1NC(=S)NC(c2ccccc2)=C1C(=O)OCC (centres undefined) |  | inactive: 8.95% |
| CCc1nnc(SC(CC)C(=O)Nc2ccc(OC)c(Cl)c2)c2cc3occc3n12 (centres undefined) | inconclusive: 20 µM [inhibitor, single point] |  |
| N#Cc1nc(COc2ccccc2Cl)oc1NCCc1ccccc1 | inconclusive: 15.8 µM [inhibitor, single point] |  |
| COc1ccccc1N1CCN(C2CCCN(C(=O)Cn3cccn3)C2)CC1 (centres undefined) |  | inactive: 11.6% |
| O=C(CCC1CCCC1)N1CCc2c([nH]c3ccccc23)C1c1ccc(F)cc1 (centres undefined) | inconclusive: 20 µM [inhibitor, single point] |  |
| COC(=O)c1sccc1-n1cccc1C(=O)C(=O)N1CC(C)OC(C)C1 (centres undefined) |  | inactive: 1.89% |
| COC(CNC(=O)CCc1c(C)nc2c(-c3ccc(F)cc3)c(C)nn2c1C)OC |  | inactive: 2.37% |
| Cc1ccc(F)cc1NC(=O)c1sc2ncn(CC(=O)N3CCN(c4ccccn4)CC3)c(=O)c2c1C | inconclusive: 3.16 µM [inhibitor, single point] |  |
| CCC(C)(C)C1CCc2[nH]nc(C(=O)NCC3CC3)c2C1 (centres undefined) | inconclusive: 35.5 µM [inhibitor, partial curve, poor fit] |  |
| Cc1ccc(NCC(=O)N/N=C/c2cc3ccccc3nc2Cl)cc1 | inconclusive: 35.5 µM [inhibitor, single point] |  |
| Cc1ccc(Cl)cc1NC(=S)N(Cc1cccs1)C1CCCC1 | inconclusive: 35.5 µM [inhibitor, single point] |  |
| O=C(Cc1ccccc1)N(Cc1cccnc1)c1nc2c(Cl)cccc2s1 |  | inactive: -27% |
| COc1ccc(OC)c(C2C(C(=O)Nc3nc4ccccc4s3)=C(C)NC3=C2C(=O)CCC3)c1 (centres undefined) | inconclusive: 11.2 µM [inhibitor, single point] |  |
| COc1ccccc1C(=O)NC(=O)COC(=O)CCS(=O)(=O)c1ccc(C)cc1 |  | inactive: 0.429% |
| O=C(Cc1ccc(Cl)c(Cl)c1)NNC(=S)NCC1CCCO1 (centres undefined) |  | inactive: -6.03% |
| Cc1ccc(CC(=O)CCc2ccccc2)cc1 | inconclusive: 0.398 µM [inhibitor, full curve] |  |
| Cc1ccc(Nc2ccc3cc(S(=O)(=O)N4CCCCC4)ccc3n2)cc1F | inconclusive: 28.2 µM [inhibitor, single point] |  |
| COc1ccc(C)cc1NC(=O)Cn1c(=O)oc2cc(S(=O)(=O)N3CCCCC3)ccc21 |  | inactive: -23.8% |
| Cc1ccc(CNCC(O)(c2ccccc2)c2ccc(Cl)cc2)cc1 (centres undefined) | inconclusive: 35.5 µM [inhibitor, single point] |  |
| Cc1ccc(Sc2cnn(-c3ccccc3)c(=O)c2Cl)cc1 | inconclusive: 35.5 µM [inhibitor, partial curve, poor fit] |  |
| Cc1ccc(C)c(SCC(=O)Nc2ccc(C)c(S(=O)(=O)N3CCOCC3)c2)c1 | inconclusive: 14.1 µM [inhibitor, partial curve, poor fit] |  |
| CC(C)(C)OC(=O)N[C@@H](Cc1ccccc1)c1nnc(SCC(=O)c2ccc(Cl)cc2)o1 | inconclusive: 11.2 µM [inhibitor, partial curve] |  |
| COc1ccc(C2c3c(n(C)c4ccccc34)C(=O)N2CC(=O)Nc2cccc(F)c2)cc1 (centres undefined) |  | inactive: 0% |

| SMILES | Potency | activity, negative = inhibition |
| --- | --- | --- |
| COc1cc(CNC(=O)c2cccc(COc3ccc(Cl)cc3)c2)cc(OC)c1 | inconclusive: 35.5 µM [inhibitor, single point] |  |
| CCCc1cc(=O)[nH]c2nnc(SCC)n12 |  | inactive: 0.765% |
| CCc1ccc(NC(=O)COC(=O)C2(c3ccc(Cl)cc3)CCCC2)cc1 | inconclusive: 1.78 µM [inhibitor, partial curve, poor fit] |  |
| NS(=O)(=O)c1ccc(NC(=S)N2CCN(c3cccc(Cl)c3)CC2)cc1 | inconclusive: 15.8 µM [inhibitor, single point] |  |
| CCOc1cccc(-c2c(C(=O)N/N=C/c3ccc(C)s3)nnn2-c2nonc2N)c1 |  | inactive: -22.4% |
| N/C(CC1CC1(Cl)Cl)=N\OC(=O)c1ccccc1 (centres undefined) | inconclusive: 35.5 µM [inhibitor, single point] |  |
| CC(=O)Nc1ccc(S(=O)(=O)NCCC(=O)OCc2ccccc2F)cc1 |  | inactive: 20.2% |
| Cc1ccc2c(c1)NCC(C(=O)NC1CCCCC1)O2 (centres undefined) | inconclusive: 35.5 µM [inhibitor, partial curve, poor fit] |  |
| O=C(OCc1ccc(F)cc1)c1cc2ccccc2cc1O |  | inactive: -1.38% |
| O=C(CSc1ncnc2c1cnn2CCc1ccccc1)Nc1cccc(C(F)(F)F)c1 | inconclusive: 22.4 µM [inhibitor, single point] |  |
| S=C(NCC1COc2ccccc2O1)Nc1ccccc1 (centres undefined) |  | inactive: -1.09% |
| Cc1cc2cc(CNC(=S)NCc3ccccc3)ccc2n1C | inconclusive: 22.4 µM [inhibitor, single point] |  |
| CC(C)Cc1nnc(NC(=O)CCNC(=O)c2ccco2)s1 |  | inactive: 5.12% |
| COc1ccc(-c2nnc(NC(=O)c3ccccc3C)o2)cc1 | inconclusive: 35.5 µM [inhibitor, single point] |  |
| CCOc1cc(/C=C/C(=O)Nc2ccc(C(=O)NCCN(CC)CC)cc2)ccc1OCC(C)C | inconclusive: 35.5 µM [inhibitor, single point] |  |
| C#Cc1ccc([C@@H]2C=C(C(=O)NCc3ccccc3)O[C@H](OCC)[C@H]2CCCO)cc1 | inconclusive: 0.562 µM [inhibitor, full curve, poor fit] |  |
| CC1=Nc2cc(C(=O)NCCCN3CCOCC3)ccc2Sc2c(C)ccc(C)c21 | inconclusive: 12.6 µM [inhibitor, partial curve, poor fit] |  |
| C=CCN1c2ccccc2Sc2cnccc21 | inconclusive: 25.1 µM [inhibitor, single point] |  |
| CCOc1cc(CN2CCCCC2)ccc1OC |  | inactive: 12% |
| CCN1CCN(Cc2ccc(NC(=O)c3cc(NC(=O)c4cnnc5ccccc45)cc(OC)c3)cc2C(F)(F)F)CC1 | inconclusive: 15.8 µM [inhibitor, single point] |  |
| O=C(COc1ccc2ccccc2c1)NC1CC(=O)N(c2cccc(F)c2)C1 (centres undefined) | inconclusive: 14.1 µM [inhibitor, single point] |  |
| COc1ccc([C@H]2C[C@@H](n3cc(COC(=O)c4ccccc4)nn3)[C@H](O)CN2C(=O)C2CCCCC2)cc1 | inconclusive: 15.8 µM [inhibitor, single point] |  |
| Cc1ccc(S(=O)(=O)Nc2nc3n(n2)C(c2ccc(F)cc2)C=C(c2ccccc2)N3)cc1 (centres undefined) |  | inactive: 30.2% |
